Measured values: the supplement of paper PMC12645437, “Orthogonal IMiD-Degron Pairs Induce Selective Protein Degradation in Cells” (ACS Chemical Biology, 2025)
Some of the results follow.

B1: Q9UKT9 (peptide)
chain: LGCNQCGFNCTQKGNLLRHIKL
B2: Q9UKT9 (peptide)
chain: FVCPICGAFFTQKGNLLRHIKL
B3: Q9UKT9 (peptide)
chain: LNCEICGFMCTQKGNLLRHIKL
B4: Q9UKT9 (peptide)
chain: FVCEICGRYFTQKGNLLRHIKL
B5: Q9UKT9 (peptide)
chain: FACEVCGAEFTQKGNLLRHIKL
B6: Q9UKT9 (peptide)
chain: FNCSVCGHAFTQKGNLLRHIKL
B7: Q9UKT9 (peptide)
chain: FKCNICGAEFTQKGNLLRHIKL
B8: Q9UKT9 (peptide)
chain: FQCEICGAQFTQKGNLLRHIKL
B9: Q9UKT9 (peptide)
chain: FVCPQCGAQFTQKGNLLRHIKL
B10: Q9UKT9 (peptide)
chain: FSCNQCGRIFTQKGNLLRHIKL
B11: Q9UKT9 (peptide)
chain: LQCPICGFACTQKGNLLRHIKL
B12: Q9UKT9 (peptide)
chain: FWCDICGAGFTQKGNLLRHIKL
B13: Q9UKT9 (peptide)
chain: LSCEICGFDCTQKGNLLRHIKL
B14: Q9UKT9 (peptide)
chain: FICDICGACFTQKGNLLRHIKL
B15: Q9UKT9 (peptide)
chain: LICEICGFLCTQKGNLLRHIKL
B16: Q9UKT9 (peptide)
chain: FHCDVCGATFTQKGNLLRHIKL
B17: Q9UKT9 (peptide)
chain: LCCNQCGFWCTQKGNLLRHIKL
B18: Q9UKT9 (peptide)
chain: FQCDQCGAQFTQKGNLLRHIKL
B19: Q9UKT9 (peptide)
chain: FMCPQCGALFTQKGNLLRHIKL
B20: Q9UKT9 (peptide)
chain: FYCPICGRAFTQKGNLLRHIKL
B21: Q9UKT9 (peptide)
chain: FGCNQCGAPFTQKGNLLRHIKL
B22: Q9UKT9 (peptide)
chain: FHCEVCGAYFTQKGNLLRHIKL
B23: Q9UKT9 (peptide)
chain: FGCEVCGAVFTQKGNLLRHIKL
B24: Q9UKT9 (peptide)
chain: FVCDVCGADFTQKGNLLRHIKL
B25: Q9UKT9 (peptide)
chain: FVCDQCGALFTQKGNLLRHIKL
B26: Q9UKT9 (peptide)
chain: FDCPICGHDFTQKGNLLRHIKL
B27: Q9UKT9 (peptide)
chain: FLCPVCGAKFTQKGNLLRHIKL
B28: Q9UKT9 (peptide)
chain: FCCPICGHPFTQKGNLLRHIKL
B29: Q9UKT9 (peptide)
chain: LKCEICGFCCTQKGNLLRHIKL
B30: Q9UKT9 (peptide)
chain: FHCDICGAHFTQKGNLLRHIKL
B31: Q9UKT9 (peptide)
chain: FYCPICGHIFTQKGNLLRHIKL
B32: Q9UKT9 (peptide)
chain: FFCDVCGARFTQKGNLLRHIKL
B33: Q9UKT9 (peptide)
chain: FHCPICGAYFTQKGNLLRHIKL
B34: Q9UKT9 (peptide)
chain: LSCNQCGFWCTQKGNLLRHIKL
B35: Q9UKT9 (peptide)
chain: FECNQCGRTFTQKGNLLRHIKL
B36: Q9UKT9 (peptide)
chain: LGCPICGFCCTQKGNLLRHIKL
B37: Q9UKT9 (peptide)
chain: FICEQCGARFTQKGNLLRHIKL
B38: Q9UKT9 (peptide)
chain: FSCPICGARFTQKGNLLRHIKL
B39: Q9UKT9 (peptide)
chain: FNCNVCGAYFTQKGNLLRHIKL
B40: Q9UKT9 (peptide)
chain: FACEQCGAVFTQKGNLLRHIKL
B41: Q9UKT9 (peptide)
chain: LVCNQCGFNCTQKGNLLRHIKL
B42: Q9UKT9 (peptide)
chain: FDCPQCGAWFTQKGNLLRHIKL
B43: Q9UKT9 (peptide)
chain: FRCEICGATFTQKGNLLRHIKL
B44: Q9UKT9 (peptide)
chain: FKCPVCGAFFTQKGNLLRHIKL
B45: Q9UKT9 (peptide)
chain: FLCPICGAKFTQKGNLLRHIKL
B46: Q9UKT9 (peptide)
chain: FCCPICGAAFTQKGNLLRHIKL
B47: Q9UKT9 (peptide)
chain: FICNQCGAWFTQKGNLLRHIKL
B48: Q9UKT9 (peptide)
chain: FICPICGRSFTQKGNLLRHIKL
B49: Q9UKT9 (peptide)
chain: FCCEICGAQFTQKGNLLRHIKL
B50: Q9UKT9 (peptide)
chain: FRCPICGHMFTQKGNLLRHIKL

Biological target: no compound (DMSO)
Experiment: log2 fold change of degron read counts, EGFP-low vs EGFP+ sorted cells; higher = lower degron-EGFP level without compound (poor expression or instability)
Conditions: compound: DMSO control; 18 h
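Further: jurkat cells carrying a lentiviral library of mutant zinc finger degrons fused to EGFP plus mCherry, mCherry+ cells FACS sorted, degron abundance counted by next-generation sequencing.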

Row | Sequence | log2 fold change of degron read counts
1 | B1 | 0.981
2 | B2 | 0.273
3 | B3 | 0.207
4 | B4 | -1.37
5 | B5 | -2.71
6 | B6 | -0.265
7 | B7 | -3.14
8 | B8 | -1.33
9 | B9 | -0.612
10 | B10 | 0.0933
11 | B11 | 0.854
12 | B12 | -0.3
13 | B13 | -0.57
14 | B14 | -1.33
15 | B15 | 0.621
16 | B16 | -1.84
17 | B17 | 1.7
18 | B18 | -1.78
19 | B19 | 0.264
20 | B20 | -3.34
21 | B21 | 0.439
22 | B22 | -1.45
23 | B23 | -1.84
24 | B24 | -2.61
25 | B25 | -2.49

Row | Sequence | log2 fold change of degron read counts
26 | B26 | -0.641
27 | B27 | -0.0534
28 | B28 | 0.78
29 | B29 | -0.408
30 | B30 | -1.72
31 | B31 | 1.08
32 | B32 | -1.31
33 | B33 | 0.706
34 | B34 | 1.57
35 | B35 | -2.65
36 | B36 | 1.42
37 | B37 | -1.27
38 | B38 | -0.271
39 | B39 | 0.054
40 | B40 | -1.09
41 | B41 | 0.175
42 | B42 | -0.197
43 | B43 | -1.36
44 | B44 | 0.536
45 | B45 | -0.392
46 | B46 | 0.262
47 | B47 | 0.67
48 | B48 | -0.401
49 | B49 | -1.29
50 | B50 | -0.238
